# Source: paper PMC4336329 (PLoS ONE, 2015)
# The whole screen tested about 310,000 compounds, of which about 14,000 (4.5%) showed an effect of 50% or more. The effect is printed as a negative number. This is one part of the list.
# Target: human ether-à-go-go-related gene (hERG) potassium channel (human, UniProt Q12809)
# Test: primary screen, population patch clamp on CHO cells stably expressing hERG
# 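Further: peak tail current of the secondary pulse compared with the same well before compound.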
# Chain of human ether-à-go-go-related gene (hERG) potassium channel (Q12809 whole entry, looked up): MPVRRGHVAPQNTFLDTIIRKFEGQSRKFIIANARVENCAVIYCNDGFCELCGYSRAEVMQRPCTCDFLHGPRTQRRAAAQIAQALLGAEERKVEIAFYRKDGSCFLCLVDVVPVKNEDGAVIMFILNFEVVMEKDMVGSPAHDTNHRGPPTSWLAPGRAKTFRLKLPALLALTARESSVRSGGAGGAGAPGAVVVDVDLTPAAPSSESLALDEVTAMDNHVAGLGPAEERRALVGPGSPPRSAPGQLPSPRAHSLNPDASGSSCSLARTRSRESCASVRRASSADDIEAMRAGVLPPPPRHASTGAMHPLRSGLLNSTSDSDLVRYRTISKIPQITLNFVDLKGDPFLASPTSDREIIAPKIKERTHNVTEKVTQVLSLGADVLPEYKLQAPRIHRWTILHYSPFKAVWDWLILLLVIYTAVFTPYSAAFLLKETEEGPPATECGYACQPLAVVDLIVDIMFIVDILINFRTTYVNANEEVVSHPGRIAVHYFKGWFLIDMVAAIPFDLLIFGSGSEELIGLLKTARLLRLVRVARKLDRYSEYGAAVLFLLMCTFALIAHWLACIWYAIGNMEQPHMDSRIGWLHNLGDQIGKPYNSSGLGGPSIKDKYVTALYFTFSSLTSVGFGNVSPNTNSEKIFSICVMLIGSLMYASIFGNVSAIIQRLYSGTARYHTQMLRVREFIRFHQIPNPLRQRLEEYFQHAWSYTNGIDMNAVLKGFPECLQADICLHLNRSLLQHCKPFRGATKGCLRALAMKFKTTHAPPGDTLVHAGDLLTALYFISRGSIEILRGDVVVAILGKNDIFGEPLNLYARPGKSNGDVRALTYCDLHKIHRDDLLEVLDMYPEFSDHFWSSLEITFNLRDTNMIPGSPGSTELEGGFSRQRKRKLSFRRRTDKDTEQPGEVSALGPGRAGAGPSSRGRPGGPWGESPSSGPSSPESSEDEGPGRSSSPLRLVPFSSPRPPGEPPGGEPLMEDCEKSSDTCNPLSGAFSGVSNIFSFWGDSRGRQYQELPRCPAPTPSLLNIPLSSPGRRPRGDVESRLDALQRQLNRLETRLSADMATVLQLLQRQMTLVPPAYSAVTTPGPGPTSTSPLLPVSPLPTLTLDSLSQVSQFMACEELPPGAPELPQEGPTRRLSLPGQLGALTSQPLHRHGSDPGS
row,SMILES,"hERG current change (%, negative = inhibition) at 10uM"
1,CCc1cccc(C)c1NC(=O)CN1CCN(S(=O)(=O)c2ccc(C(C)(C)C)cc2)CC1,-7.39%
2,Cc1cc(-c2nc(C)c(C(=O)NN)s2)no1,25.5%
3,Cc1ccc(Sc2ncccc2COC(=O)Nc2c(C)cccc2C)cc1,-3.24%
4,C/C(N)=C(/C#N)C(=O)COC(=O)c1ccc(C)c(S(=O)(=O)N2CCCCC2)c1,-1.36%
5,Cc1cc(NC(=O)COC(=O)c2ccc([N+](=O)[O-])cc2Cl)no1,-8.5%
6,CC1CCCCC1NC(=O)CCCCCn1c(=S)[nH]c2ccsc2c1=O (stereo not drawn),21.4%
7,C=CCN(CC=C)C(=S)Nc1ccc(OC)c(OC)c1,10.3%
8,Oc1ccc(Cl)cc1N=Nc1ccccc1,0.302%
9,O=C1c2ccccc2NC(c2ccccc2O)N1NS(=O)(=O)c1ccccc1 (stereo not drawn),3.28%
10,Cc1nonc1NC(=O)CSc1nc2ccccc2cc1C#N,3.73%
11,Cc1ccc(-c2nnn(CC(=O)N(Cc3cccs3)C(C(=O)NCC3CCCO3)c3ccco3)n2)o1 (stereo not drawn),-24%
12,O=c1ccc(Cc2ccccn2)n[nH]1,12.9%
13,COc1ccc(NC(=O)c2cc3nc(-c4ccccc4)cc(C)n3n2)cc1OC,-33%
14,CCOC(=O)C1(CCOc2ccccc2)CCN(Cc2cccs2)CC1,-81.8%
15,Cn1c(=O)[nH]c(=O)c2c1nc(CN1CCN(c3ccccc3F)CC1)n2CCCc1ccccc1,-33.7%
16,O=C(CSc1nnc2c(Cl)cc(C(F)(F)F)cn12)Nc1ccc2c(c1)OCO2,-2.29%
17,COC(=O)c1cc(=O)n(-c2c(Cl)cc(C(F)(F)F)cc2Cl)[nH]1,14.8%
18,CCOC(=O)C1(c2ccccc2)CCN(CCC(C#N)(c2ccccc2)c2ccccc2)CC1.Cl,-25%
19,COCCNC(=O)/C(C#N)=C/c1cc(Br)c(O)c(OC)c1,21.3%
20,Cc1ccc(C(=O)NC2CCN(C(=O)NCc3ccccc3)CC2)cc1,-0.364%
21,CC(C)CSc1nc2ccccc2n1CC(=O)O,7.22%
22,CCOc1ccc(-c2nc(-c3cccnc3)no2)cc1,-7%

row,SMILES,"hERG current change (%, negative = inhibition) at 10uM"
1,O=C(Nc1cccc2c1C(=O)NC2=O)c1cccc(N2C(=O)CCC2=O)c1,1.35%
2,O=C(CNC(=O)c1cccc(F)c1)N/N=C/c1cccs1,17.4%
3,C=CCOC(=O)C1=C[C@H](c2coc3ccccc3c2=O)C[C@H](OCCCCO)O1,-42.5%
4,CC(C)Oc1ccc(N2CC(C(=O)OCC(=O)NCc3ccccc3)CC2=O)cc1 (stereo not drawn),-24.6%
5,FC(F)(F)c1cccc(Cn2nnnc2-c2cc(Cl)cc(Cl)c2)c1,-2.3%
6,O=S(=O)(Nc1ccc2c(c1)OCCO2)c1cnc[nH]1,7.8%
7,O=C(C1CCCN(S(=O)(=O)c2ccccc2)C1)N1CCN(c2ccc(F)cc2)CC1 (stereo not drawn),-75.7%
8,O=C(c1ccco1)N1CCN(C(=O)c2ccc(-c3ccc(Cl)cc3)o2)CC1,-78.8%
9,CC1N/C(=C\C(=O)c2ccccc2)N(O)C1(C)C (stereo not drawn),11.8%
10,CCOc1ccc(S(=O)(=O)N2CCC(C(N)=O)CC2)c2ccccc12,-15.4%
11,O=C(NC1CCCC1)c1cc2cc(Br)ccc2o1,4.63%
12,CN(c1ccccc1)S(=O)(=O)c1cccc(NC(=O)CCN2C(=O)C3CCCCC3C2=O)c1 (stereo not drawn),-18.4%
13,CCN(CC)c1ccc(N2C(=O)/C(=C\c3cccs3)SC2=S)cc1,1.45%
14,COc1ccc(CNS(=O)(=O)c2ccc(-n3cnnn3)c(OC)c2)cc1,-17.9%
15,COCCNC(=O)CSc1nc2nc(C)cc(C)n2n1,21.8%
16,COc1ccc(C(=O)C[n+]2cccc(Br)c2)cc1.[Br-],5.82%
17,Cc1snc(SCc2ccc(F)cc2)c1C#N,1.8%
18,COc1ccc(CNC(=O)CCNS(=O)(=O)c2ccc3c(c2)oc(=O)n3C)cc1,7.1%
19,COc1ccc(OCC(=O)N2CCN(C(C)C)CC2)cc1.O=C(O)C(=O)O,6.62%
20,COc1ccc(NS(=O)(=O)c2ccc(C)c(C(=O)NC3CCN(Cc4ccccc4)CC3)c2)cc1,-51.1%
21,CC(=O)N1CCN(C(=O)c2cccc(S(=O)(=O)NCc3ccccc3)c2)CC1,5.5%
22,O=C(O)c1cc(-c2ccc3c(c2)OCO3)nc2ccc(Br)cc12,9.07%

row,SMILES,"hERG current change (%, negative = inhibition) at 10uM"
1,COc1cc(S(=O)(=O)N2CCCC3(CCCCC3)C2)ccc1-n1cnnn1,-8.99%
2,CC(C)(C)c1ccccc1NC(=O)N1CCNC(=O)C1CC(=O)Nc1ccc(F)cc1 (stereo not drawn),30.6%
3,S=c1[nH]c(-c2cccs2)cn1-c1ccccc1,7.46%
4,CN(C)S(=O)(=O)c1ccc(NC(=O)Cn2c(-c3ccccc3)noc2=O)cc1,1.23%
5,Cn1c(N)c(C(=O)COC(=O)c2ccc(Cl)c(S(=O)(=O)N3CCCC3)c2)c(=O)n(C)c1=O,-43.9%
6,CNC(=O)CN(C1CCCCC1)S(=O)(=O)c1ccc(F)cc1,-9.15%
7,Cl.O=C(CN1CCCCCC1)Nc1cccc(Br)c1,-47.3%
8,COc1ccc2oc(=O)c(C(=O)N3CCN(c4ccccc4)CC3)cc2c1,-15.3%
9,O=S1(=O)CCOC[C@H](Cc2ccccc2)N1Cc1ccccc1,-37.8%
10,NC1=NC(c2ccccc2)N=C(Nc2ccccc2)N1 (stereo not drawn),7.79%
11,O=C(NC1CC1)C(=O)c1c(-c2ccccc2)[nH]c2ccccc12,3.36%
12,Cc1ccc2c(c1)/C(=C/c1ccccc1)C(=O)N2,3.06%
13,Cc1cc(=O)[nH]c(N/N=C/c2c(C)nn(-c3ccccc3Cl)c2Cl)n1,2.67%
14,Cc1ccc(S(=O)(=O)Cn2nnnc2C(CC(C)C)N2CCN(C(=O)c3ccco3)CC2)cc1.Cl (stereo not drawn),-38.1%
15,Cc1ccc(/C=N/NC(=O)c2n[nH]c3c2CCCC3)cc1,5.09%
16,CCc1ccc(S(=O)(=O)N/N=C\c2ccc([N+](=O)[O-])o2)cc1,22.9%
17,COc1ccc(NC(=O)CN(C)C(=O)c2cccc(S(=O)(=O)N3CCN(C)CC3)c2)cc1,-4.92%
18,Cc1onc(-c2c(Cl)cccc2Cl)c1NC(=O)NNc1ccccn1,-11.7%
19,O=C(COc1ccc(Cl)cc1)NCc1cn2cc(Cl)ccc2n1,-21.1%
20,CCOC(=O)c1c(NC(=O)Cn2nc(C(F)F)cc2C(F)F)sc(C)c1C,2.58%
21,O=C(c1ccc(Br)cc1)N1CCC(C(=O)N2CCN(c3ccccc3)CC2)CC1,-68.5%
22,Cn1c2ccccc2c2c(C(=O)N3CCN(C(=O)c4ccco4)CC3)cn(C3CCCCC3)c(=O)c21,-24.8%

row,SMILES,"hERG current change (%, negative = inhibition) at 10uM"
1,Cc1cc(C)n(-c2ccc(C(=O)NCc3ccc(F)cc3)cc2)n1,-48.7%
2,CC1(c2ccc3ccccc3c2)NC(=O)N(CC(=O)N2CCN(c3ccccc3O)CC2)C1=O (stereo not drawn),4.12%
3,COC(=O)COc1ccc2c(=O)c(-c3ccccc3)coc2c1,12.2%
4,C[C@H]1C[C@@H](C)C(=O)[C@@H]([C@H](O)CC2CC(=O)NC(=O)C2)C1,20.2%
5,CCOC(=O)c1cc2cc([N+](=O)[O-])cc(OC)c2oc1=O,-6.82%
6,COc1ccc(C2(C)NC(=O)N(CC3CCCCC3)C2=O)cc1 (stereo not drawn),9.8%
7,O=C(c1ccc(Cl)c(S(=O)(=O)NCc2ccccc2)c1)N1CCN(c2ccccn2)CC1,-50.3%
8,CC1CCN(c2ccc(C(=O)Nc3nnc(C4CC4)s3)cc2[N+](=O)[O-])CC1,18.8%
9,Cc1csc(NC(=O)c2cnccn2)n1,5.47%
10,Cc1c(C(=O)N2CCCC2)sc(NC(=O)c2ccc(Cl)cc2)c1C#N,11%
11,CN1CCCN(C(=O)C2CCCCC2)CC1,8.68%
12,O=P(c1ccccc1)(c1ccccc1)N1CCCCC1,-6.36%
13,Cc1ccc(C(=O)/C=C/c2cn(CC(O)CN3CCOCC3)c3ccccc23)cc1 (stereo not drawn),-4.11%
14,CC(C)N(Cc1nc(-c2ccccc2)no1)C(=O)Cc1ccccc1,-15.4%
15,O=C(NC1CCS(=O)(=O)C1)c1cccc(Cl)c1 (stereo not drawn),8.91%
16,Cc1nc2scc(C)n2c(=O)c1S(=O)(=O)NCC1CCN(Cc2ccc(F)cc2)CC1,-49.7%
17,O=C1CSC(c2ccc([N+](=O)[O-])cc2)N1c1ccc(O)cc1 (stereo not drawn),7.95%
18,O=C(CCc1nnc(CCCCc2ccccc2)o1)NCCc1cccnc1,-37.2%
19,CC(C)NS(=O)(=O)c1cc(F)ccc1CN1C(=O)c2cccnc2C1=O,10.5%
20,COc1ccc2cc(CCNC(=O)c3ccc(Br)o3)c(=O)[nH]c2c1,-9.51%
21,COc1cccc(C2CC(c3ccc(Cl)cc3Cl)n3nc(N)nc3N2)c1 (stereo not drawn),-27.2%
